Legend:
[1] = molecular target: biosensor SEQ ID NO:47 (KbiotinkkafpaayiaeG-photo-cleavable linker-…rrrqrrkkr)
[2] = molecular target: control peptide SEQ ID NO:53 (KbiotinkkafpaayiaeG-photo-cleavable linker-GCGGrrrqrrkkr)

B1: Abl kinase (protein)
chain: EALQRPVASDFEPQGLSEAARWNSKENLLAGPSE[not shown - about 60 residues]LEKHSWYHGPVSRNAAEYLLSSGINGSFLVRESESSPGQRSISLRYEGRVYHYRINTASDGKLYVSSESRFNTLAELVHHHSTVADGLITTLHYPAPKRNKPTVYGVSPNYDKWEMERTDITMKHKLGGGQYGEVYEGVWKKYSLTVAVKTLKEDTMEVEEFLKEAAVMKEIKHPNLVQLLGVCTREPPFYIITEFMTYGNLLDYLRECNRQEVNAVVLLYMATQISSAMEYLEKKNFIHRDLAARNCLVGENHLVKVADFGLSRLMTGDTYTAHAGAKFPIKWTAPESLAYNKFSIKSDVWAFGVLLWEIATYGMSPYPGIDLSQVYELLEKDYRMERPEGCPEKVYELMRACWQWNPSDRPSFAEIHQAFETMFQESSISDEVEKELGKQGVRGAVSTLLQAPELPTKTRTSRRAAEHRDTTDVPEMPHSKGQGESDPLDHEPAVSPLLPRKERGPPEGGLNEDERLLPKDKKTNLFSALIKKKKKTAPTPPKRSSSFREMDGQPERRGAGEEEGRDISNGALAFTPLDTADPAKSPKPSNGAGVPNGALRESGGSGFRSPHLWKKSSTLTSSRLATGEEEGGGSSSKRFLRSCSASCVPHGAKDTEWRSVTLPRDLQSTGRQFDSSTFGGHKSEKPALPRKRAGENRSDQVTRGTVTPPPRLVKKNEEAADEVFKDIMESSPGSSPPNLTPKPLRRQVTVAPASGLPHKEEAGKGSALGTPAAAEPVTPTSKAGSGAPGGTSKGPAEESRVRRHKHSSESPGRDKGKLSRLKPAPPPPPAASAGKAGGKPSQSPSQEAAGEAVLGAKTKATSLVDAVNSDAAKPSQPGEGLKKPVLPATPKPQSAKPSGTPISPAPVPSTLPSASSALAGDQPSSTAFIPLISTRVSLRKTRQPPERIASGAITKGVVLDSTEALCLAISRNSEQMASHSAVLEAGKNLYTFCVSYVDSIQQMRNKFAFREAINKLENNLRELQICPATAGSGPAATQDFSKLLSSVKEISDIVQR
- Km (michaelis-menton constant) [1]: Km=7.5 µM
- Vmax (michaelis-menton constant) [1]: Vmax=849.5 pmol/mg·min
- phosphorylation in the in vitro kinase assay, detected by mass spectrometry [1]: when the SH3 targeting sequence was present in the full-length, SEQ ID NO:47 was phosphorylated with reasonable efficiency
- phosphorylation in the in vitro kinase assay, detected by mass spectrometry [2]: SEQ ID NO: 53 was not appreciably phosphorylated

Source: patent publication US20170101664
